# Test results: paper PMC4336329 (PLoS ONE, 2015)
# Screen size: about 310,000 compounds; about 2,200 (0.71%) showed an effect of 50% or more. The effect is printed as a negative number. Some of the results follow.
# Biological target: human ether-à-go-go-related gene (hERG) potassium channel (human, UniProt Q12809)
# Test: primary screen, population patch clamp on CHO cells stably expressing hERG
# Sequence of human ether-à-go-go-related gene (hERG) potassium channel (Q12809 whole entry, looked up): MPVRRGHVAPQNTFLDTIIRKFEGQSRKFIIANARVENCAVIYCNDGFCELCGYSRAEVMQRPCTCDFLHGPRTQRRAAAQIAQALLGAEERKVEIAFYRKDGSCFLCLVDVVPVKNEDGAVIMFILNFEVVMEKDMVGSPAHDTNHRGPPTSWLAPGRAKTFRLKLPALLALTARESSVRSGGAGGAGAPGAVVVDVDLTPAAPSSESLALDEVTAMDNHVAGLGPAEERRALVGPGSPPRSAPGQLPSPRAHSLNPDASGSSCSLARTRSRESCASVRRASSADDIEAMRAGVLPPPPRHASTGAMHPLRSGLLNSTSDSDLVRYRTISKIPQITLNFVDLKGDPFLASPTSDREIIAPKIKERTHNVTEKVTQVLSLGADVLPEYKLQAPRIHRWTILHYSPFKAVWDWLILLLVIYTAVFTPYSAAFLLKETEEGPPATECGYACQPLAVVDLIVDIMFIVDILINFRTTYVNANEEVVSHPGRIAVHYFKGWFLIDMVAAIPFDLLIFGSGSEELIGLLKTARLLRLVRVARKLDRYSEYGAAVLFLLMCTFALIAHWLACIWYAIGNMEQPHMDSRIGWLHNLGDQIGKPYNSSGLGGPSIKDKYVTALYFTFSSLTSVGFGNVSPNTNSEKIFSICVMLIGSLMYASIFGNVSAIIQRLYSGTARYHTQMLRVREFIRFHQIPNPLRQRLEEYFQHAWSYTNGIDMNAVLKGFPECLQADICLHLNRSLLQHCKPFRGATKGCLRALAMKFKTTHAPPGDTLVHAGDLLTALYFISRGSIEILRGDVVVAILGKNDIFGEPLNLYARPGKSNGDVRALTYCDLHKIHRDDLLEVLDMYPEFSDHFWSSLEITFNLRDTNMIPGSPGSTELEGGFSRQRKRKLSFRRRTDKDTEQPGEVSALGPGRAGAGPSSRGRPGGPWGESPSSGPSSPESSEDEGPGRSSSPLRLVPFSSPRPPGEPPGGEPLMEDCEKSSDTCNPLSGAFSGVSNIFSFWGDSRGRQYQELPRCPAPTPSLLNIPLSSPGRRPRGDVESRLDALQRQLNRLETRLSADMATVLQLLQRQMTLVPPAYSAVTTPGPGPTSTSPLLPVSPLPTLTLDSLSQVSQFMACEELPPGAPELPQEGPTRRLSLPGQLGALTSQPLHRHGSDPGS
row,Compound,"hERG current change (%, negative = inhibition) at 1uM"
1,COC(=O)c1cc2c(ccn2-c2ccc(F)cc2)n1CC(=O)OC(C)C,15.7%
2,O=c1c2c3c(sc2n(CCN2CCOCC2)c(=O)n1Cc1ccco1)CCCCC3,-9.12%
3,COc1ccc(Nc2nc(N)nc(COc3ccc(OC)cc3)n2)cc1,2.9%
4,O=C(CCC(=O)OCC(=O)c1ccc(Br)cc1)Nc1cccc2cccnc12,2.44%
5,O=C(NC1CCCCCC1)C1CCCN(S(=O)(=O)c2cccs2)C1 (centres unmarked),12.9%
6,CN(C)C(=O)c1c([N+](=O)[O-])ncn1C,11.4%
7,COc1ccc(NC(=O)CSc2nccn2Cc2ccc(F)cc2)cc1,-0.999%
8,CCOC(=O)C(NC(=O)Nc1ccccc1)(OCC)C(F)(F)F (centres unmarked),7.34%
9,O=C(COC(=O)c1ccc([N+](=O)[O-])s1)NCCc1ccccc1,4.95%
10,COc1cccc(N2CCN(CC(=O)c3c[nH]c4ccc(OC)cc34)CC2C)c1 (centres unmarked),2.29%
11,O=C(NC(=O)N1CCSCC1)c1c(Cl)cccc1Cl,9.76%
12,O=C(Nc1c2n(c(=S)n(-c3ccccc3)c1=O)CCCCC2)c1ccccc1,1.56%
13,COc1ccc(S(=O)(=O)N(CC(=O)Nc2ccccc2C(=O)N2CCOCC2)c2ccc(F)cc2)cc1,-11%
14,CCn1c(SCC(=O)NC2CCCCC2)nnc1-c1ccco1,3.82%
15,CCS(=O)(=O)c1cc([N+](=O)[O-])c(Sc2ccccc2NC(C)=O)s1,14.2%
16,CC(=O)/C(C#N)=C1\NC(=O)C(Cc2ccccc2C)S1 (centres unmarked),11.2%
17,CCCN1CNC(=S)N(CCc2ccccc2)C1,13.2%
18,Cl.O=C(c1ccco1)N1CCN(C(c2ccccc2F)c2nnnn2CC2CCCO2)CC1 (centres unmarked),-7.84%
19,Cc1ccc(NC(=O)c2sccc2-n2cccc2)c(C)c1,11.6%

row,Compound,"hERG current change (%, negative = inhibition) at 1uM"
1,Cc1ccc2sc(NC(=O)c3ccc(N4C(=O)CCC4=O)cc3)nc2c1C,18.9%
2,Cc1ccc(C(=O)N/N=C\c2ccc(-c3ccc([N+](=O)[O-])cc3)o2)cn1,12%
3,Cc1cc(C)nc(NS(=O)(=O)c2ccc(NC(=O)C3CC(=O)N(c4ccccc4)C3)cc2)n1 (centres unmarked),9.9%
4,O=S(=O)(c1ccccc1)c1nc(Nc2ccccc2N2CCOCC2)sc1Cl,0.482%
5,COc1ccc(C(C(=O)NCc2ccccc2)N(Cc2ccco2)C(=O)c2snc(C(N)=O)c2N)cc1OC (centres unmarked),16%
6,CCCC(=O)Nc1nnc(SCC(=O)N2C(C)CCCC2C)s1 (centres unmarked),-11.6%
7,COc1ccccc1CNC(=O)CNC(=O)c1cn(-c2ccccc2OC)c(=O)c2ccccc12,-4.01%
8,Cc1ccc(S(=O)(=O)N2CCC3(CC2)CC(=O)c2ccccc2O3)cc1,-4.84%
9,COc1ccc(C/C(N)=N/OC(=O)CCc2ccccc2)cc1,15.2%
10,CC(=O)c1cccc(N2C(=NC(=O)C3CCCCC3)SC3CS(=O)(=O)CC32)c1 (centres unmarked),13.1%
11,CCOc1ccc2nc(NC(=O)c3cnc(C)cn3)sc2c1,1.69%
12,Oc1ccc(/C=N/Nc2nc(N3CCCC3)nc(N3CCCC3)n2)cc1O,-0.682%
13,CCCN1CCC(=O)N([C@H](CO)Cc2ccccc2)CC1,6.98%
14,O=C(CNc1cccc(S(=O)(=O)N2CCCC2)c1)Nc1ccc(C(F)(F)F)cc1,12.3%
15,Cc1nc(C)c(C(=O)O)c(-c2cccs2)c1C(=O)O,1.37%
16,O=C(COc1ccc([N+](=O)[O-])cc1)N(Cc1ccccc1)Cc1ccccc1,1.39%
17,CC(C)(C)NS(=O)(=O)c1ccc(CCC(=O)NCc2ccco2)cc1,9.45%
18,COc1cccc(CC(=O)Nc2nccs2)c1,7.99%
19,CN1CCN2c3ncccc3Cc3ccccc3[C@@H]2C1,6.24%

row,Compound,"hERG current change (%, negative = inhibition) at 1uM"
1,CC/C(=C\c1oc2cc3ccccc3cc2[n+]1CC)Nc1ccccc1.[I-],-83.7%
2,Cc1ccc(C)n1-c1ccc(C(=O)NCc2ccncc2)cc1,-1.09%
3,COc1ccc(C)cc1NC(=O)C1CCCN(S(=O)(=O)c2cccnc2)C1 (centres unmarked),7.33%
4,CCOC(=O)Nc1nc(-c2ccc(F)cc2F)cs1,10.4%
5,COc1ccc(CCN2CC(C(=O)NCCc3ccccn3)CCC2=O)cc1 (centres unmarked),2.83%
6,Cc1occc1-c1nnc(SCC(=O)c2ccccc2)n1CC1CCCO1 (centres unmarked),3.67%
7,CCOc1ccccc1NC(=O)CNC(=O)c1nn(-c2ccc(OC)c(OC)c2)c(=O)c2ccccc12,11.2%
8,O=C(COC(=O)C1=COCCO1)NCCCc1ccccc1,7.13%
9,O=C1CCCc2oc3c(c21)CCCC3,-8.2%
10,CCCN(CCC)S(=O)(=O)c1cc(Br)cc2c1N(C(=O)CC)CC2,10.6%
11,Cc1ccc(C(C)C)cc1OCCn1cncn1,9.66%
12,CCCNS(=O)(=O)c1ccc(OCC(=O)Nc2ccc3c(c2)OCCO3)c(C)c1,1.83%
13,Cc1nonc1CN(C)C(=O)CC1C(=O)NCCN1Cc1ccccc1C(F)(F)F (centres unmarked),10.3%
14,Cc1ccc(NC(=O)CCNC(=O)c2ccc(Br)cc2)cc1S(=O)(=O)N1CCCCCC1,4.59%
15,Cc1ccc(-c2nc3ccccc3c(=O)n2-c2nccs2)cc1,2.71%
16,Brc1ccc(-n2c(SCc3nc4ccccc4[nH]3)nnc2-c2ccncc2)cc1,-5.72%
17,COc1ccc(C(=O)N2CCOC2CNC(=O)C(=O)NCc2ccco2)cc1 (centres unmarked),6.42%
18,CC(=O)c1cccc(NC(=O)CN(c2ccccc2)S(C)(=O)=O)c1,4.49%
